# Experimental data reported in PubChem BioAssay (NCATS).
# This list was built around the results that the source calls inconclusive (neither active nor inactive); the mix of calls is not that of the screen. For some of these results: Potencies beside an inconclusive call are fits to weak or partial responses and may not hold up. For some of these results: A note “side channel” means that the fit belongs to a control or component signal, not to the main read-out. The source made the active and inactive calls. Unless noted, the call rests on the fitted dose curve; in most records, active means well fitted curve in the direction sought with a large enough effect; inconclusive means small, poorly fitted or top-dose-only effect, or another doubt; inactive means no such curve, though single readings can be large; an effect the other way counts as inactive or inconclusive.
# How the values were obtained:
# [1] = Cell Viability - LYMP2-002 (AID 977); conditions: LYMP2-002 lymphoblastoid cell viability, qHTS; activity change, negative = cytotoxic: at 92.2 µM (top of the series); further: potency means the concentration at half of the fitted maximal effect
# Outline: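 Human lymphoblastoid cells, 2500/well, complete medium; 5 h 37 C settle; compound 24 h 37 C; CellTiter-Glo, 30 min RT; luminescence. Decrease in ATP = cytotoxicity; AC50 via Hill equation.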
# [2] = Cell Viability - LYMP2-006 (AID 978); further: potency means the concentration at half of the fitted maximal effect; nearly all actives have a fitted effect of over 60% in size
# Outline: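 Potency values are Hill-fit AC50s for decreases in intracellular ATP (CellTiter-Glo luminescence). LYMP2-006 lymphoblastoid cells, 2500 per well, were exposed to compound in complete culture medium for 24 hr at 37 C.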
# [3] = Cell Viability - LYMP2-014 (AID 983); further: potency means the concentration at half of the fitted maximal effect; nearly all actives have a fitted effect of over 50% in size
# Outline: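 Intracellular ATP loss, read by luciferase luminescence, measures acute cytotoxicity after 24 h compound exposure of lymphoblastoid LYMP2-014 cells (2500/well, 37 C). Concentration-response data fitted to the Hill equation for AC50.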
# [4] = Cell Viability - LYMP2-016 (AID 984); conditions: LYMP2-016 lymphoblastoid cell viability, qHTS; activity change, negative = cytotoxicity: at 92.2 µM (top of the series); further: potency means the concentration at half of the fitted maximal effect; nearly all actives have a fitted effect of over 55% in size
# Outline: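 Cytotoxicity was scored by luminescent ATP content (CellTiter-Glo) after 24 h compound exposure at 37 C of a human lymphoblastoid line at 2500 cells/well. Concentration-response data were fitted to the Hill equation for AC50.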
# [5] = Cell Viability - LYMP2-026 (AID 989); further: potency means the concentration at half of the fitted maximal effect; nearly all actives have a fitted effect of over 50% in size
# Outline: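 Cytotoxicity read as ATP-dependent luminescence (CellTiter-Glo, 30 min room temperature) after 24 h compound treatment at 37 C. LYMP2-026 lymphoblastoid line seeded at 2500 cells/well; AC50 derived by standard Hill equation.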
# [6] = Cell Viability - LYMP1-002 - Assay at 24 hr (AID 993); further: potency means the concentration at half of the fitted maximal effect
# Outline: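 qHTS cytotoxicity at 24 h: CellTiter-Glo ATP luminescence in lymphoblastoid line LYMP1-002 incubated with compound at 37 °C. Concentration-response modeled with the Hill equation for AC50; tetraoctylammonium bromide served as positive control.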
# [7] = biological target: Estrogen receptor (Homo sapiens) (UniProt P03372); test: qHTS assay for small molecule antagonists of estrogen receptor alpha signaling (AID 588513; active means well fitted curve in the direction sought with a large enough effect in the signal ratio, with a control signal flat, not every such curve was filed as active; inconclusive means small, poorly fitted or top-dose-only effect, or effect the other way, or a change in a side signal; inactive means no such curve, though single readings can be large or run the other way; the % refers to the signal ratio; further: potency means the concentration at half of the fitted maximal effect); conditions: ER-alpha-UAS-bla HEK293, beta-lactamase ratio, antagonist mode; activity, negative = inhibition: at 76.9 µM (top of the series) unless noted
# Outline: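 Antagonist mode: inhibition of 0.5 nM 17-beta-estradiol-driven beta-lactamase reporter in HEK 293 ER-alpha-UAS-bla cells, 18 h at 37C, CCF4 readout after 2 h at RT. Normalised to estradiol and DMSO; titration fitted to Hill.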
# [8] = biological target: Estrogen receptor (Homo sapiens) (UniProt P03372); test: qHTS assay for small molecule agonists of estrogen receptor alpha signaling (AID 588514; calls by dose curve; further: potency means the concentration at half of the fitted maximal effect; nearly all actives have a fitted effect of over 70% in size); conditions: ER-alpha-UAS-bla HEK293, beta-lactamase ratio, 18 h; activation: at 76.8 µM (top of the series), percent of full estradiol response, vehicle zero
# Outline: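 EC50 and efficacy came from Hill fits of beta-lactamase reporter signal (CCF4 dye, 2 h at room temperature) scaled between DMSO and 20 nM 17-beta-estradiol. Agonist mode: HEK293 ER-alpha-UAS-bla cells in charcoal/dextran-stripped serum medium, 18 h compound exposure at 37 C.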
# [9] = biological target: Androgen receptor (Homo sapiens) (UniProt P10275); test: qHTS assay for small molecule agonists of androgen receptor signaling (AID 588515; active means well fitted curve in the direction sought with a large enough effect in the signal ratio, with a control signal flat; inconclusive means small, poorly fitted or top-dose-only effect, or effect the other way, or a change in a side signal; inactive means no such curve, though single readings can be large or run the other way; the % refers to the signal ratio; further: on the % scale 0 is the no-effect control and ±100 the full control effect); conditions: AR-UAS-bla HEK293, beta-lactamase ratio, agonist 16 h; activation: hits give high values
# Outline: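 Stimulation of an AR-responsive β-lactamase reporter in GripTite HEK293 cells was measured after 16 h compound exposure at 37 °C, via CCF4 fluorescence after 2 h RT. EC50 from Hill fits, normalized to R1881 at 30 nM.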
# [10] = biological target: Glucocorticoid receptor (Homo sapiens) (UniProt P04150); test: qHTS assay for small molecule agonists of glucocorticoid receptor signaling (AID 588532; active means well fitted curve in the direction sought with a large enough effect in the signal ratio, with a control signal flat; inconclusive means small, poorly fitted or top-dose-only effect, or a change in a side signal; inactive means no such curve, though single readings can be large or run the other way; the % refers to the signal ratio; further: potency means the concentration at half of the fitted maximal effect); conditions: HeLa MMTV-bla, beta-lactamase ratio, agonist, 18 h; activation: hits give high values, percent of dexamethasone control, DMSO zero
# Outline: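 HeLa GRE-bla reporter cells; 18 h compound exposure at 37 C; 2 h CCF4 loading at room temperature; fluorescence at 460 and 530 nm; EC50 by Hill equation.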
# [11] = biological target: Peroxisome proliferator-activated receptor delta (Homo sapiens) (UniProt Q03181); test: qHTS assay for small molecule antagonists of peroxisome proliferator-activated receptor delta signaling (AID 588535; active means well fitted inhibition curve with a large enough effect in the signal ratio, with a control signal flat, not every such curve was filed as active; inconclusive means small, poorly fitted or top-dose-only effect, or effect the other way, or a change in a side signal; inactive means no such curve, though single readings can be large or run the other way; the % refers to the signal ratio; further: potency means the concentration at half of the fitted maximal effect); conditions: HEK293T PPARd-UAS-bla, beta-lactamase FRET ratio, 18 h; activity change, negative = inhibition: at 76.7 µM (top of the series)
# Outline: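 Fluorescence from CCF4-loaded GeneBLAzer PPAR-delta-UAS-bla HEK293T cells (2 hrs RT loading) quantified reporter inhibition after an 18 hr, 37 C compound exposure across a titration.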
# [12] = biological target: Peroxisome proliferator-activated receptor gamma (Homo sapiens) (UniProt P37231); test: qHTS assay for small molecule agonists of peroxisome proliferator-activated receptor gamma signaling (AID 588536; active means well fitted curve in the direction sought with a large enough effect in the signal ratio, with a control signal flat, not every such curve was filed as active; inconclusive means small, poorly fitted or top-dose-only effect, or effect the other way, or a change in a side signal; inactive means no such curve, though single readings can be large or run the other way; the % refers to the signal ratio;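 further: 0% = DMSO basal wells and 100% = rosiglitazone at 2 µM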); conditions: HEK293 PPARg-UAS-bla, beta-lactamase ratio, 16 h; activation: at 76.7 µM (top of the series), percent of rosiglitazone response, DMSO as zero
# Outline: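 Cells were plated and held 6–6.5 h at 37 C, then compounds were added as a titration series. After a further 16 h, CCF4 dye was loaded for 2 h at room temperature and emission at 460/530 nm recorded.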
# [13] = biological target: Peroxisome proliferator-activated receptor gamma (Homo sapiens) (UniProt P37231); test: qHTS assay for small molecule antagonists of peroxisome proliferator-activated receptor gamma signaling (AID 588537; active means well fitted inhibition curve with a large enough effect in the signal ratio, with a control signal flat, not every such curve was filed as active; inconclusive means small, poorly fitted or top-dose-only effect, or effect the other way, or a change in a side signal; the % refers to the signal ratio); conditions: HEK293 PPARg-UAS-bla, beta-lactamase ratio, antagonist mode; activity, negative = inhibition: at 76.8 µM (top of the series)
# Outline: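 Fluorescence at 460 and 530 nm (405 nm excitation) reported beta-lactamase cleavage of CCF4 after 2 h room-temperature loading. HEK293 reporter cells in 1% charcoal/dextran-treated FBS had received compound and rosiglitazone for 16 h.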
# [14] = biological target: Retinoic acid receptor RXR-alpha (Homo sapiens) (UniProt P19793); test: qHTS assay for small molecule agonists of retinoid X receptor alpha signaling (AID 588544; calls by dose curve; further: potency means the concentration at half of the fitted maximal effect); conditions: HEK293T RXRa-UAS-bla, beta-lactamase reporter, 18 h; activation: at 76.7 µM (top of the series) unless noted
# [15] = biological target: Retinoic acid receptor RXR-alpha (Homo sapiens) (UniProt P19793); test: qHTS assay for small molecule antagonists of retinoid X receptor alpha signaling (AID 588546; active means well fitted inhibition curve with a large enough effect in the signal ratio, with a control signal flat, not every such curve was filed as active; inconclusive means small, poorly fitted or top-dose-only effect, or effect the other way, or a change in a side signal; inactive means no such curve, though single readings can be large or run the other way; the % refers to the signal ratio;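 further: cells stimulated with 9-cis-retinoic acid as agonist; on the % scale 0 is the no-effect control and ±100 the full control effect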); conditions: HEK293T RXRa-UAS-bla, beta-lactamase ratio, antagonist mode
# Outline: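 Beta-lactamase reporter inhibition, read as CCF4 fluorescence ratio (ex 405, em 460/530 nm) after 2 h at RT. HEK293T UAS-bla cells, 2500/well, were stimulated with 9-cis-RA at 500 or 100 nM final alongside test compound for 18 h at 37 C.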
# [16] = qHTS assay for small molecule agonists of the antioxidant response element (ARE) signaling pathway (AID 651741; active means well fitted activation curve with a large enough effect in the signal ratio; inconclusive means small, poorly fitted or top-dose-only effect, or effect the other way, or a change in a side signal; the % refers to the signal ratio; further: potency means the concentration at half of the fitted maximal effect); conditions: HepG2 ARE-bla reporter, beta-lactamase FRET ratio, 16 h; activation: at 96 µM (top of the series) unless noted
# Outline: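 Stably integrated ARE-beta-lactamase reporter HepG2 cells; 16 h compound incubation, 37 C; LiveBLAzer FRET substrate 2 h at room temperature; fluorescence intensity.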
# [17] = qHTS assay for small molecule activators of the nuclear factor-kappa B (NF-kB) signaling pathway (AID 651749; active means well fitted activation curve with a large enough effect in the signal ratio; inconclusive means small, poorly fitted or top-dose-only effect, or a change in a side signal; the % refers to the signal ratio; further: potency means the concentration at half of the fitted maximal effect); conditions: NF-kB-bla ME-180 cells, beta-lactamase FRET ratio, 16 h; activation: hits give high values
# Outline: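 In this qHTS format, compounds acting as activators increase NF-kB-driven beta-lactamase in ME-180 cells, measured as disrupted FRET after 16 hr exposure at 37C and 5% CO2.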
# [18] = biological target: Tumor necrosis factor (Homo sapiens) (UniProt P01375); test: qHTS assay to identify small molecules that stimulate Tumor Necrosis Factor-alpha (TNF-alpha) secretion (AID 651757; active means well fitted curve in the direction sought with a large enough effect in the signal ratio; inconclusive means small, poorly fitted or top-dose-only effect, or a change in a side signal; inactive means no such curve, though single readings can be large or run the other way; the % refers to the signal ratio; further: potency means the concentration at half of the fitted maximal effect); conditions: Human cells, HTRF 665/615 ratio; activation (TNF-alpha secretion): at 92.2 µM (top of the series)
# Outline: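 Secreted TNF-alpha quantified by TR-FRET sandwich of two labeled anti-TNF-alpha antibodies, incubated 3 hr at room temperature. Preceded by 17 hr, 37 C compound treatment of THP-1 cells at 3000 cells/well.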
# [19] = qHTS assay to identify small molecules that stimulate interleukin-8 (IL-8) secretion (AID 651758; active means well fitted activation curve with a large enough effect in the signal ratio; inconclusive means small, poorly fitted or top-dose-only effect, or effect the other way, or a change in a side signal; the % refers to the signal ratio; further: potency means the concentration at half of the fitted maximal effect); conditions: HTRF ratio (665/615); activation: at 92.2 µM (top of the series)
# Outline: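 Compounds are added to THP-1 cells (2000 per well) and left 16 hrs at 37 C. A labeled anti-IL-8 antibody pair is then added, and IL-8 secretion is measured by time-resolved FRET after 1-3 hrs at room temperature.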
# [20] = qHTS assay for small molecule antagonists of the retinoid-related orphan receptor gamma (ROR-gamma) signaling pathway - cell viability counter screen (AID 720652; active means well fitted curve in the direction sought with a large enough effect in the repeat runs; inconclusive means weak or mixed curves; inactive means no such curve, though single readings can be large; an effect the other way counts as inactive or inconclusive;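 further: potency means the concentration at half of the fitted maximal effect; compound exposure lasted 16 hr before ATP read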)
# Outline: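 Cytotoxicity counter screen: intracellular ATP (CellTiter-Glo luminescence) measured in the doxycycline-induced CHO RORE-luciferase reporter line after 16 hr compound exposure at 37 C, 5% CO2.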
# [21] = qHTS assay for cell viability of HEK293 cells (AID 743288); conditions: ATP luminescence (CellTiter-Glo), 18 h; max response: hits give low values; further: potency means the concentration at half of the fitted maximal effect; nearly all actives have a fitted effect of over 50% in size
# Outline: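 Readout is luciferase-coupled ATP content (CellTiter-Glo luminescence, 30 min room temperature) as a measure of metabolically competent cells. Parental HEK293 cells were plated 5 h or more before compound addition, then treated 18 h at 37 C.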
# [22] = qHTS assay for cell viability of the p53RE-bla HCT-116 cell line (AID 743292); further: potency means the concentration at half of the fitted maximal effect; nearly all actives have a fitted effect of over 55% in size
# Outline: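 Compound-exposed HCT-116 (p53RE-bla) cells, 4,000 per well, were kept 16 h at 37 C following a 5 h preincubation. Cell number was estimated from total ATP by CellTiter-Glo luminescence read after 30 min at room temperature.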
# Tags describe the fitted curve by direction and shape or compound fluorescence and quenching.
# Sequence of UniProt P03372 (P03372 whole entry, looked up): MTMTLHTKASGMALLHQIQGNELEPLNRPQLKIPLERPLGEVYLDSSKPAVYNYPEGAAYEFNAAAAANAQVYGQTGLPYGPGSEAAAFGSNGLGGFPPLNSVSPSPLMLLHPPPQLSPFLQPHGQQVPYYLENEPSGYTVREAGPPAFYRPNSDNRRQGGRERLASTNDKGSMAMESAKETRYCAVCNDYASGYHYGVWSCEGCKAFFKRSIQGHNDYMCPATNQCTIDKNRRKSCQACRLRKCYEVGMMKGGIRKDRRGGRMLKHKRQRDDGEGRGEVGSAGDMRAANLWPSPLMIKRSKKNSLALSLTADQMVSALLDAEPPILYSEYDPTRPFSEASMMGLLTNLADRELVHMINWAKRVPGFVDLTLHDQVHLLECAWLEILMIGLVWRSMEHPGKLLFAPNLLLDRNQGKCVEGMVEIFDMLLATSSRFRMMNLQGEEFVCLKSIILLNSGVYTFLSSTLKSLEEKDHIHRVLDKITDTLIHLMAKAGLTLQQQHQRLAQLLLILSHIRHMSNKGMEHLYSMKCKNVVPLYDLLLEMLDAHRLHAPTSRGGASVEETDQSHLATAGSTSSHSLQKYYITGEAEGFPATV
# Sequence of UniProt P19793 (P19793 whole entry, looked up): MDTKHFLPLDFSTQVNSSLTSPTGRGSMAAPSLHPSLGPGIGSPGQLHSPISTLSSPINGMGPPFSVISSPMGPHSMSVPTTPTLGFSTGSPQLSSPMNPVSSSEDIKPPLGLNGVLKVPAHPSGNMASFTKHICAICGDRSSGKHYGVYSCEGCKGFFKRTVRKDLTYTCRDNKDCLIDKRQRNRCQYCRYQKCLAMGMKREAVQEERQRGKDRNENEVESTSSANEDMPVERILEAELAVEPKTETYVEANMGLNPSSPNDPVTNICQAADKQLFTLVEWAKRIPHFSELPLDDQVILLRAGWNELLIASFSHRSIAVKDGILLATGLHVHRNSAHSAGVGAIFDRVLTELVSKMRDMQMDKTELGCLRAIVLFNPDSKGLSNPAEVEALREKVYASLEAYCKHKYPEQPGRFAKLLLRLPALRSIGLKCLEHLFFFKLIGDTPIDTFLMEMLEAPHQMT
# Sequence of UniProt P01375 (P01375 whole entry, looked up): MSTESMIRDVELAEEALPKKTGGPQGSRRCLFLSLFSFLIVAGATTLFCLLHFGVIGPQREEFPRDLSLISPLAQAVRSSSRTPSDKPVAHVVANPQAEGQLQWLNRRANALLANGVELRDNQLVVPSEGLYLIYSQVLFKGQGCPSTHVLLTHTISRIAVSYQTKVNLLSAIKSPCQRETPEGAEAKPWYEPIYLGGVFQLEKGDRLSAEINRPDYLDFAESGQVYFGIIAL
# Sequence of UniProt Q03181 (Q03181 whole entry, looked up): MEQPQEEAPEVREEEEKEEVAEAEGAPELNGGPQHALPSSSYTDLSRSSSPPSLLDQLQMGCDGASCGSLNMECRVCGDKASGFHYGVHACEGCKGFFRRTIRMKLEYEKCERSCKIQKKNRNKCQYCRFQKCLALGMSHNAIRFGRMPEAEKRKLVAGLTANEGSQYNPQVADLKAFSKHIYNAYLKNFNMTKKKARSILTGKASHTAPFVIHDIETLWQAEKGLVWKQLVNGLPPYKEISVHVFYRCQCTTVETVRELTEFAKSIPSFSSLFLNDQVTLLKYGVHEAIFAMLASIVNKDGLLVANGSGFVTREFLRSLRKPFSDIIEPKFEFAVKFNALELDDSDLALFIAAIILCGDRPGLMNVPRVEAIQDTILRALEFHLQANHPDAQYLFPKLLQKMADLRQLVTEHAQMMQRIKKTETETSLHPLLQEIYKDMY
# Sequence of UniProt P10275 (P10275 whole entry, looked up): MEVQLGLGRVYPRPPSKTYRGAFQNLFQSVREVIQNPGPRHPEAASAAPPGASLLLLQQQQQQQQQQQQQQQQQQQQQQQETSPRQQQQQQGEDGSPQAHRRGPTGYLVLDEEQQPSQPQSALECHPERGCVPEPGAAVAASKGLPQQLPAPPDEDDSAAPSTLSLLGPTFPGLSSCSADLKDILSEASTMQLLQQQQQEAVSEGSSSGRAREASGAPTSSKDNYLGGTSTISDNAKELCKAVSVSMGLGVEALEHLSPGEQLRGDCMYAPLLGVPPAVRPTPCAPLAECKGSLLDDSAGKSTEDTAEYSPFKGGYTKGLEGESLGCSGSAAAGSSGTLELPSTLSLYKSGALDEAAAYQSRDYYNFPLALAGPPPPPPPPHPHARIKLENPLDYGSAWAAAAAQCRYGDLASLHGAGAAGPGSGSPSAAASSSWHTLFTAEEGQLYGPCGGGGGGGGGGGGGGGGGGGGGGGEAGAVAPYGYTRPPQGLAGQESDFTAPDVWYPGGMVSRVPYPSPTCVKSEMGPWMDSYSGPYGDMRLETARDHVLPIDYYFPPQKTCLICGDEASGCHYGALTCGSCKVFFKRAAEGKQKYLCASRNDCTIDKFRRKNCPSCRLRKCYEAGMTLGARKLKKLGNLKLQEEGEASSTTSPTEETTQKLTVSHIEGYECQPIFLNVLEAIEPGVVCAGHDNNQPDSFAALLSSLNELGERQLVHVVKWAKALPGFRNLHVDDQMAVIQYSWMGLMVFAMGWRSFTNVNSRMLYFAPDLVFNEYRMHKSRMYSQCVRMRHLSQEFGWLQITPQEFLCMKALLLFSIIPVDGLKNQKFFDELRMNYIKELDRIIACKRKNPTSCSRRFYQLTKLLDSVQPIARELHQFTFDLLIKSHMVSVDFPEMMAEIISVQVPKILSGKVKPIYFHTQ
smiles,measurement,setting,value
N=C1C=CC(=C(c2ccc(N)cc2)c2ccc(N)cc2)C=C1,Potency,[1],active: 7.94 µM
same,Potency,[2],active: 10 µM
same,Potency,[3],active: 7.94 µM
same,Potency,[4],active: 7.94 µM
same,Potency,[5],active: 7.94 µM
same,Potency,[6],active: 12.6 µM
same,Potency,[7],"inconclusive: 39.8 µM [falling, partial curve]"
same,Potency,[8],"inconclusive: 31.6 µM [side channel, rising, single point]"
same,activation,[9],inconclusive: -37%
same,Potency,[10],"inconclusive: 0.891 µM [side channel, falling, full curve, poor fit]"
same,Potency,[11],"inconclusive: 31.6 µM [fluorescent, side channel, full curve, poor fit]"
same,Potency,[12],inactive
same,Potency,[13],"inconclusive: 25.1 µM [activator, partial curve]"
same,Potency,[14],"inconclusive: 10 µM [falling, full curve]"
same,max response,[15],inconclusive: -55.1%
same,Potency,[16],active: 42.2 µM
same,Potency,[17],"inconclusive: 28.2 µM [side channel, falling, partial curve, poor fit]"
same,Potency,[18],"inconclusive: 47.3 µM [rising, partial curve, poor fit]"
same,Potency,[19],"inconclusive: 75 µM [rising, partial curve]"
same,Potency,[20],active: 18.8 µM
same,Potency,[21],active: 31.6 µM
same,Potency,[22],"inconclusive: 31.6 µM [cytotoxic, partial curve]"
